# According to paper PMC4336329 (PLoS ONE, 2015):
# The whole screen tested about 310,000 compounds, of which about 2,200 (0.71%) showed an effect of 50% or more. Effects have a minus sign here. This is one part of the list.
# Biological target: human ether-à-go-go-related gene (hERG) potassium channel (human, UniProt Q12809)
# Experiment: primary screen, population patch clamp on CHO cells stably expressing hERG
# Chain of human ether-à-go-go-related gene (hERG) potassium channel (Q12809 whole entry, looked up): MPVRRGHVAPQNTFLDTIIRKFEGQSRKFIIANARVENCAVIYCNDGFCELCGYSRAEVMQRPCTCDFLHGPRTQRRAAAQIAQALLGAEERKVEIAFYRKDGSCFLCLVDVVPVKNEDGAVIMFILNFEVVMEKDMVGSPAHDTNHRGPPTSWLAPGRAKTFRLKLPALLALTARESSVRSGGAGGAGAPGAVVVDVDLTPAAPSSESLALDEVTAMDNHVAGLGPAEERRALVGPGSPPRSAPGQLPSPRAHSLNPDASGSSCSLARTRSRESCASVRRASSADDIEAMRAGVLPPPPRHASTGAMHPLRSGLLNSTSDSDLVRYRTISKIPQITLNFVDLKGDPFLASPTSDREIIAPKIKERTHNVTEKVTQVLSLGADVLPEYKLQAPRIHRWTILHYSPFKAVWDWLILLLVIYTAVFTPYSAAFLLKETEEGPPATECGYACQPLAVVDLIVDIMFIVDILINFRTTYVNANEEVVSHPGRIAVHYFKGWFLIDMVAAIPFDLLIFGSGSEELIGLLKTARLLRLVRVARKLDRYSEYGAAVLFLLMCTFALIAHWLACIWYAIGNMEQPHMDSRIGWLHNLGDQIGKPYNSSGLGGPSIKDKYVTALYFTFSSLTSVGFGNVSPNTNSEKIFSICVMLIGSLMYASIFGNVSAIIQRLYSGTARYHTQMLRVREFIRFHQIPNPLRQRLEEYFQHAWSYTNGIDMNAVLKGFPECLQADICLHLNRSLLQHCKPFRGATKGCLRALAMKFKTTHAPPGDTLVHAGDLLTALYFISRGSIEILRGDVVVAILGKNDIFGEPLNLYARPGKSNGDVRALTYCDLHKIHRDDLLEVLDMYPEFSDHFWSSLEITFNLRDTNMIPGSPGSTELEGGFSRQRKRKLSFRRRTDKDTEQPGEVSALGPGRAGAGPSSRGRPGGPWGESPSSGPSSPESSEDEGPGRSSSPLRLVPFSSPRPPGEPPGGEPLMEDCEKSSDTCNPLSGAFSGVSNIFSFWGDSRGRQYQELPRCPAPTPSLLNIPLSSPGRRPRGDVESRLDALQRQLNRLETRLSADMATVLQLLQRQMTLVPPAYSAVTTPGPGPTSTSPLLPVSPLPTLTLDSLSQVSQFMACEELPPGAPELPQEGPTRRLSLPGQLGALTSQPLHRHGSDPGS
row,Structure (SMILES),"hERG current change (%, negative = inhibition) at 1uM"
1,COc1cc(CNc2ccc3[nH]c(=O)[nH]c3c2)ccc1OCc1ccccc1,11.9%
2,CN(C)CCN=Cc1c(O)n(-c2cccc3ccccc23)c(=O)[nH]c1=O,1.85%
3,CC(C)C(C(=O)NCC1CCCO1)N(Cc1ccccc1)C(=O)CNS(=O)(=O)c1ccccc1 (centres unmarked),11.9%
4,COc1ccc(C2C(C(C)=O)=C(O)C(=O)N2c2nccs2)cc1 (centres unmarked),-0.0288%
5,CCCCCCCCCn1cc(C(C)=O)c(=O)[nH]c1=O,5.48%
6,Cc1ccc(C(C)C)c(OCC(=O)Nc2ccccc2N2CCN(C)CC2)c1,1.51%
7,CCOc1cc(NC(=S)Nc2ccccc2)c(OCC)cc1NC(=O)c1ccccc1,-1.81%
8,O=S(=O)(NCc1csc(-c2ccccc2)n1)c1ccc(Cl)s1,9.46%
9,CC(=O)Cc1ccc(OC(C)C)cc1,9.97%
10,Cc1ccc(-n2cc(CN3CCNC(=O)CC3)c(-c3cccc(C)c3)n2)cc1,14.7%
11,Cc1ccc(C(=O)O/N=C(\N)c2ccccn2)cc1C,2.24%
12,COc1ccc2nc(Nc3nc4ccc(NC(C)=O)cc4s3)sc2c1,12.5%
13,O=S(=O)(NCc1ccccc1F)NCc1ccccc1F,-2.65%
14,CCN(CC(=O)Nc1c(F)cccc1F)C(=O)c1cccnc1SC,5.46%
15,Cc1cc(=O)[nH]c(N/N=C/c2ccccc2C(F)(F)F)n1,12.7%
16,CCOc1ccc(N2C(=O)CC(N3CCN(c4ccc([N+](=O)[O-])cc4)CC3)C2=O)cc1 (centres unmarked),-2.45%
17,COCCNC(=O)CCCn1c(=O)c2ccccc2n(Cc2ccccc2C#N)c1=O,17.3%
18,CC(Oc1ccccc1)C(=O)N1CCc2ccccc2C1 (centres unmarked),10.8%
19,O=C(Nc1ccc(F)cc1F)c1sccc1SCc1cccc(C(F)(F)F)c1,0.0128%
20,CC1(C)Cc2c(C#N)c(N3CCN(C(=O)c4ccco4)CC3)nc(-c3ccco3)c2CS1,14.4%
21,COc1ccccc1CNC(=O)C(C)Oc1ccccc1 (centres unmarked),-1.19%
22,CC(C(=O)NC(=O)NC1CCCCC1)N(C)CC(=O)Nc1ccc(F)c(F)c1F (centres unmarked),12.1%

row,Structure (SMILES),"hERG current change (%, negative = inhibition) at 1uM"
1,Cc1c(NC(=O)CSC2=C(C#N)C(c3ccccc3F)CC(=O)N2)c(=O)n(-c2ccccc2)n1C (centres unmarked),12.7%
2,Cc1ccccc1C(=O)Nn1cnc2ccccc2c1=O,23.3%
3,Cc1onc(-c2ccccc2)c1C(=O)NCC1CCCO1 (centres unmarked),16.8%
4,CC12CCC(C(=O)NCc3ccc(Cl)cc3)(OC1=O)C2(C)C (centres unmarked),-1.52%
5,CN(Cc1ccccc1)C1(CNC(=O)CCC(F)(F)F)Cc2ccccc2C1,8.69%
6,COc1ccccc1C(=O)N1CCN(Cc2cn[nH]c2-c2ccc(F)cc2F)CC1,9.84%
7,CCCCn1c(N)c(N(Cc2ccccc2OC)C(=O)COc2ccc(F)cc2Cl)c(=O)[nH]c1=O,14.7%
8,O=C(NCCCN1CCCC1=O)C1CCN(S(=O)(=O)c2ccccc2)CC1,22.1%
9,NC(=O)CSc1nnc(COc2ccccc2)n1N,14.1%
10,CNC(=S)Nc1cc(OC)ccc1OC,7.4%
11,CCN(CCn1cccn1)C(=O)CCc1nnc(C2(c3ccc(Cl)cc3)CCC2)o1,13%
12,Cc1cc(NC(=O)c2ccc(C#N)cc2)on1,9.35%
13,Cc1c(C(=O)O)oc2c1/C(=N\O)CCC2,15.9%
14,COc1ccccc1CNC(=O)C(CCSC)NS(=O)(=O)c1ccc2c(c1)oc(=O)n2C (centres unmarked),15.7%
15,CCOCCCN(C(=O)CCC(=O)Nc1cc(C)on1)C(C(=O)NC(C)(C)C)c1ccccc1Cl (centres unmarked),15.5%
16,Cc1ccc(/C=C/c2ccc(N(C)C)cc2)[n+](C)c1.[I-],-2.19%
17,Cc1ccc(NC(=O)N(CCCN2CCOCC2)Cc2cc3cc4c(cc3[nH]c2=O)OCO4)cc1,-0.107%
18,COc1ccc(OC)c(NC(=S)NCCN2CCOCC2)c1,4.52%
19,O=C(NCc1ccncc1)C(=O)N/N=C/c1ccccc1OCc1ccccc1,14.5%
20,CCOC(=O)N1CCC(N2Cc3cccc(C(=O)Nc4ccccc4OC)c3C2=O)CC1,-41.4%
21,NNC(=O)c1cc2ccccc2[nH]1,13.9%
22,CC(C)CN(C(=O)COC(=O)c1nc(Cl)ccc1Cl)C1CCS(=O)(=O)C1 (centres unmarked),13%

row,Structure (SMILES),"hERG current change (%, negative = inhibition) at 1uM"
1,Cc1ccc(C(=O)Nc2ccc3c(c2)OCO3)cc1S(=O)(=O)N1CCOCC1,9.32%
2,O=C(Nc1nnc(-c2ccc3c(c2)CCCC3)o1)c1ccccc1,-1.81%
3,CN(c1ccccc1)S(=O)(=O)c1cccc(NC(=O)Cc2n[nH]c(=O)c3ccccc23)c1,1.58%
4,Cc1cc(/C=N/Nc2nc(N3CCOCC3)nc(N3CCOCC3)n2)c(C)n1-c1ccccc1,8.17%
5,CCOc1ncccc1C(=O)OCC(=O)NCc1ccc2c(c1)OCO2,2.77%
6,O=c1c2ccccc2nc(-c2ccccc2Cl)n1-c1ccc(O)cc1,11.6%
7,O=C(O)[C@H]1Cc2ccccc2CN1S(=O)(=O)c1ccc(F)cc1,14.4%
8,Cc1csc(/N=C/N(C)C)c1C#N,11.2%
9,Cc1csc(NC(=O)CSc2nc(C(C)C)nc3ccccc23)n1,6.41%
10,COc1cc(NC(=O)c2ccc(Cl)cc2)c(Cl)cc1NC(=O)c1cccnc1,11.5%
11,Cc1ccc(C)c(S(=O)(=O)N2CCC(c3nc4c(nnn4Cc4ccc(F)cc4)c(=O)[nH]3)CC2)c1,5.48%
12,COc1ccc2cc(CCNC(=O)c3ccc(S(=O)(=O)N4CCCC4)cc3)c(=O)[nH]c2c1,6.9%
13,COc1cccc(C(=O)/C=C/Nc2cc(C)ccc2O)c1,-3.17%
14,COc1ccc(NC(=O)CN(C)S(=O)(=O)c2ccc(C)cc2)c([N+](=O)[O-])c1,-5.97%
15,O=C(O)c1ccc(CSc2nnc(-c3ccco3)n2-c2ccccc2)cc1,7.2%
16,CN1CCN(C(=O)c2ccc3c(=O)n(CCc4ccccc4)c(=S)[nH]c3c2)CC1,1.78%
17,COc1ccc(C2CC(c3ccc(Br)cc3)=NN2C(=O)c2cccnc2)cc1 (centres unmarked),-9.46%
18,COc1ccc2c(c1)c1nc3n(c(=O)c1n2CC(=O)Nc1ccccc1)CCCS3,22.2%
19,Cc1cccc(C(=O)NC2=NCCS2)c1,14.1%
20,NC(=O)C1CC(=O)N(c2ccc(OCc3ccccc3Cl)cc2)C1 (centres unmarked),4.57%
21,CCCN1C2CCCC1CC(NC(=O)c1ccccc1Br)C2 (centres unmarked),2.99%
22,N#CC(c1ccc(Cl)nn1)c1c(F)cccc1Cl (centres unmarked),13.2%

row,Structure (SMILES),"hERG current change (%, negative = inhibition) at 1uM"
1,COc1ccc(NC(=O)CCC(=O)OCc2ccc(C(=O)Oc3ccc(Cl)cc3)cc2)cc1,7.13%
2,COc1ccc(OC)c(Nc2ncnc3ccccc23)c1.Cl,2.1%
3,Cc1ccc(NC(=O)CCNS(=O)(=O)c2ccc3c(c2)CCC(=O)N3)c(Br)c1,-9.97%
4,Cc1ccc(-c2nn(-c3ccccc3)cc2/C=C/C(=O)Nc2cccc(S(N)(=O)=O)c2)cc1,5.51%
5,O=S(=O)(Nc1ccc(S(=O)(=O)Nc2nccs2)cc1)c1ccc2c(c1)OCCO2,-10.1%
6,CCN(CC)S(=O)(=O)c1ccc(OC)c(NC(=S)Nc2cc(C)ccc2C)c1,6.93%
7,O=C(CN1C(=O)/C(=C\c2cccc(Br)c2)Oc2ccccc21)NCCCN1CCOCC1,0.939%
8,S=C(Nc1ccc(Cl)c(Cl)c1)N1CCN(c2ccccn2)CC1,9.81%
9,O=C(CSc1nnc(CNC(=O)c2c(F)cccc2Cl)o1)c1ccccc1,3.39%
10,CNC(=S)NNC(=O)c1cccn(Cc2ccc(Cl)c(Cl)c2)c1=O,4.85%
11,CCOC(=O)C1CCCN(C(=O)c2cccc(N3C(=O)c4ccccc4C3=O)c2)C1 (centres unmarked),1.91%
12,Cc1cc(-c2ccco2)n2c(nc3ccccc32)c1C#N,-2.45%
13,COc1ccccc1-c1nnc(N)s1,8.73%
14,CCCc1ccc(OCC(=O)Nc2cc(S(=O)(=O)CC)ccc2O)cc1,-30.9%
15,CC(=O)Nc1ccc(S(=O)(=O)N2CCCN(c3nc(C)cc(C)c3C#N)CC2)cc1,1.96%
16,O=C(C1CCC(=O)N(C2CC2)C1)N1CCN(c2ccccc2Cl)CC1 (centres unmarked),16.1%
17,O=S(=O)(NCc1cccnc1)c1cccn1-c1ncc(C(F)(F)F)cc1Cl,3.48%
18,CCOC(=O)c1ccc(NC(=O)N2CCc3ccccc32)cc1,-3.34%
19,Cc1cc(C(=O)NC(=S)Nc2cccc(C(=O)O)c2C)ccc1[N+](=O)[O-],17.7%
20,COCCN(C(=O)COC(=O)COc1ccc(Cl)c(C)c1)c1c(N)n(Cc2ccccc2)c(=O)[nH]c1=O,6.71%
